Positions count from the first letter of the chain named. Numbers in names are those of the source. Read-outs that look alike come from different tables or passages of the source. No constants are given. Whether binding was seen depends on the method and setting. Binding seen in cells or lysates may run through a third protein. Some entries that bind do so weakly or less than the wild type. Tags and fused reporters may be left off the sequences shown. One block for each molecule: values may come before it.
Columns and labels:
Assay in all cases: pull-down; GST or GST-fused bait immobilised on glutathione sepharose 4B; 35S-methionine-labelled IVTT prey; 90 min at 4°C in WB1 (50 mM HEPES pH 7.5, 150 mM NaCl, 2 mM MgCl2, 1 mM EGTA, 1 mM DTT, 0.1% Triton X-100) with protease inhibitors and 0.5 mg/ml BSA; SDS-PAGE and autoradiography; only the target purified
[1] = target: T1, GST-Hs-EVH1 (human SMEK1^EVH1, aa 1-168) (human) (UniProt Q6IN85)
T1 sequence: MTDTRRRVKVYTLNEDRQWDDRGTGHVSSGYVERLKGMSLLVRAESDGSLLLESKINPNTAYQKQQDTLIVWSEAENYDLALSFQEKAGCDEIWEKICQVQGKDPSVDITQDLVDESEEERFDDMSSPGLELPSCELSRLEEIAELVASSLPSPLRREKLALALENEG

Sequences of proteins named here, by UniProt entry; tags and fusion partners are left off.
UniProt P35820: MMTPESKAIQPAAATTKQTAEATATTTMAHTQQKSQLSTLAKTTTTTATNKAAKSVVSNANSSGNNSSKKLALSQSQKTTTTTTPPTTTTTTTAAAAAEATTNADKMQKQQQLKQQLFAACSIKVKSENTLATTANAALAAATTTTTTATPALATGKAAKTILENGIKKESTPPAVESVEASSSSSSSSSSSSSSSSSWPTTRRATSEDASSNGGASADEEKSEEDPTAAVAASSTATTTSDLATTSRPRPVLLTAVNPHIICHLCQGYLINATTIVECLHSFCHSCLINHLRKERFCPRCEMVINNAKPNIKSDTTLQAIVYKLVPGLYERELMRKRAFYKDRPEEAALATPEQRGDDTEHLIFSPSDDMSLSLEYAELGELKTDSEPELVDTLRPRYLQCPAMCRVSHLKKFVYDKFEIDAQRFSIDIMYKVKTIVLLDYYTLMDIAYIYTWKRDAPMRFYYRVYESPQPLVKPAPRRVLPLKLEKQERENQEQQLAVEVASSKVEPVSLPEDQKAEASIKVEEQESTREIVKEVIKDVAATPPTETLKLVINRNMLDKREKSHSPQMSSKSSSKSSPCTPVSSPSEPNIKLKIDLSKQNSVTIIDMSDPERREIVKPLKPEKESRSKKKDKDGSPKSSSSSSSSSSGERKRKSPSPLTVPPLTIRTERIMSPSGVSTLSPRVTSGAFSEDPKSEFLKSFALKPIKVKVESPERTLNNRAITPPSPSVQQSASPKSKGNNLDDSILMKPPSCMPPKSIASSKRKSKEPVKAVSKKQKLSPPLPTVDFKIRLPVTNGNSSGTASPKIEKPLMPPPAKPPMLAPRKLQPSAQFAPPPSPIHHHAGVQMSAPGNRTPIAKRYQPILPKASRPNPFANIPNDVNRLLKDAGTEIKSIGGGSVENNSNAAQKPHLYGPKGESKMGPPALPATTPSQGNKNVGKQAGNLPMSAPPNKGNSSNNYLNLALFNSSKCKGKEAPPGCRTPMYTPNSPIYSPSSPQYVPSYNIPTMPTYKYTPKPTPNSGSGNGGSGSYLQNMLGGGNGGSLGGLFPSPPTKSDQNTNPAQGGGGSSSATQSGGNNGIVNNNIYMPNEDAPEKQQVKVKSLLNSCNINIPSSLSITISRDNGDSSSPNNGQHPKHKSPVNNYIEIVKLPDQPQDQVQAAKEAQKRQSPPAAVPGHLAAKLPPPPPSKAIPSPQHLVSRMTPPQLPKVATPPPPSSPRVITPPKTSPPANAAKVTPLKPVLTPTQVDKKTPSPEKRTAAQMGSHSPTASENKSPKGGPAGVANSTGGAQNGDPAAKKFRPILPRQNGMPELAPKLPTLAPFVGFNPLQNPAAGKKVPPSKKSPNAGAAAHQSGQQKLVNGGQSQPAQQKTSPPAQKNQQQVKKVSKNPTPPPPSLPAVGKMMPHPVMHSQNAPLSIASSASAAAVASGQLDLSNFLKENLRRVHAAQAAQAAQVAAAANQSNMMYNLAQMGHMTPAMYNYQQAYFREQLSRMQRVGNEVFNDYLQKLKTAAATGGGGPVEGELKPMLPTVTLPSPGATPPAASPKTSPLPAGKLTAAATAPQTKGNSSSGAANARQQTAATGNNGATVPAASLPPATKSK
UniProt P53034: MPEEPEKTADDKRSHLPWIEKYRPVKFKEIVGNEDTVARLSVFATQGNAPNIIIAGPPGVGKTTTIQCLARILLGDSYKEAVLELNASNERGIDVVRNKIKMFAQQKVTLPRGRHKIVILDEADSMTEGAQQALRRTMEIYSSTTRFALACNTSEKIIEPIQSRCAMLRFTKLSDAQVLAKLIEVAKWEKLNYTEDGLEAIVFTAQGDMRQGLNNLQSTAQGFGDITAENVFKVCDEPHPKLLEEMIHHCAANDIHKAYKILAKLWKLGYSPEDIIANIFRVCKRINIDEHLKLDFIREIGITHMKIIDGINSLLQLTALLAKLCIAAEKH

[2] = target: T2, GST-EVH1 (Falafel Flfl^1-168aa, containing the EVH1 domain) (Drosophila melanogaster) (UniProt Q9VFS5)
T2 sequence: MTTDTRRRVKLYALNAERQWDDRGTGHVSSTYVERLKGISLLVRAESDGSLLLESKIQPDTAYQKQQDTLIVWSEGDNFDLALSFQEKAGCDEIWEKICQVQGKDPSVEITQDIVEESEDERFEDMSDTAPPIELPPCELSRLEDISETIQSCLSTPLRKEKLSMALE

[3] = target: T3, GST-Smk-1 (Falafel Flfl^169-361aa, containing the Smk-1 domain) (Drosophila melanogaster) (UniProt Q9VFS5)
T3 sequence: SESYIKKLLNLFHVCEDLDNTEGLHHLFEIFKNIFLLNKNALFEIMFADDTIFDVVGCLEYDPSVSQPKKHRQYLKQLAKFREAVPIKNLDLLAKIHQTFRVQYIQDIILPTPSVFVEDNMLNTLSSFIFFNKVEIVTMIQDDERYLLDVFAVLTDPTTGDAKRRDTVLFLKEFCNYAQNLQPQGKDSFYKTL

[4] = target: T1, GST-Hs-EVH1 (human SMEK1^EVH1, aa 1-168) (human); remark: listed apart in the source
GST-Hs-EVH1^L69A (human) = target: T4, GST-Hs-EVH1^L69A (human) (UniProt Q6IN85)
T4 sequence: T1 sequence with L69A

[5] = target: T2, GST-EVH1 (Falafel Flfl^1-168aa, containing the EVH1 domain) (Drosophila melanogaster); remark: listed apart in the source
[6] = target: T5, GST-Dm-EVH1^L70A (Drosophila melanogaster) (UniProt Q9VFS5)
T5 sequence: T2 sequence with L70A

- binding [1]: binds
- binding [2]: binds
Molecule: Psc (from UniProt P35820 1-1601)

- binding [3]: binds
- binding [2]: no binding
Molecule: Rfc4 (from UniProt P53034 1-331)

- binding [4]: binds
- binding (GST-Hs-EVH1^L69A (human)): no binding
- binding [5]: binds
- binding [6]: no binding
B1: CENP-C (protein, UniProt Q9VHP9 1-1411)
chain: MSKPQNNDTLELDDILSQPVKDKERFAAFMMRKLAENKPAQNDNLFGNFKLDFDLDFEVPLIKKSQAKPKSKLPEVQPLGELVSKNSAATEKVNEPPVDQAPNENVPPRRSPTLSPNNRRSMRRSGNVPGSDKLRRHAIRRRSRSCGRQLLPEFEETVNLTRSISSPVNFLPEISSTPCTEKQKEEVAKNTTRVETDKPAEKPMELSQEPEPENPLQTKVTSPARNPILAAEIEQICKERQSSFHKNVLQLDYSGRAPYSRPPTPSSPSVAGLRRTYTMEKGPAPGQLLLSPSHRYDTPSKMPVVKAKRFNQELMVPDTPERQSHDPAWQSEPQPEFVVPETQPQDLGELVQTLSRSAISPIVVINTSNSNRSVRRDAVAMKSVPTSPVTALSSPPIAPSPRRSAAASPQKSIAQLPRVEENMDAIMTDDESDEHPSTVPLNLAPSGGNTTRQRRLRSSNRARATIESQESSMRLLNLHKSVNAKKSKPRKTAIPLNKAPSAPINGEQFARELTRMSNYEILDLRKRNSLNEIYPLNGHRNHRSEKLILEEEIQRELLRRNLMDEAEGLPKQQSSDDSNEDYIPVPPKTQSLRTKSNDRSQGRGRPRSTRRDLPMTTELVNYLGLSQTLETRRKSSKDGKRCLYTKGSSDHEDNDSLSPVKLPRLSKSIQIVPPPPVSLRYSQSLQNLPCSGKFDFDNVVMAAPPDFHDSVNSDAIEIAPPPPEYVVNTRGRSTSGRKSNKNDLVLPPPGYEGGQEEEHDERPSQPRCTAKELQQSTQNGRRAMENELVPPPIEYVEEENRNNEQSRRSTKNGNLVDRNTHNAVEYCEPPEPPEYDDSDHGQASILRRSGKKLQHSKQSVQKSNKEQIIAPSYENNEDYDSDEEPIYNEEYGKEESQNKNVTRRKSDKDEMASHTLECIEGPDPNWNSSCNKQNRNHQNASKSKENDKLANRSSKSQKLSNPRQNAVGTEKSVALSNRGEECTEKSSDVMESLRVNTPTPPIDQNSDDVPSRNPSPSRTLLSDDVPSTSRAALEFLQRSQNMSKSRPPDESSADVVFKKPLAPAPRAKSKKGKSEVDKLKLAKMPVEAEELNTTGIRRSKRGQVPLQMSWCHTMDPSKFNFMSGFIEPRSKNSKTKKGNLSKAKKASATKPKPTVEKNLPDNRGPLCSSTPRISEKLPGAIPHSESLGLSTLTWEETEVQAEAEKVPKKRGRPKKAVGGVQTDTEAEPEPEPEPMISSVAPLTSDQEEPDVPDEQAPYTEAALGPVVFSTPLRDEQEEASTKLMQWLRGVGDAPPSASMSDENASVSSANELIFCQVDGIDYAFYNTKEKAMLGYMRFKPYQKRSMKQAKVHPLKLLVQFGEFNVETLAVGEEKEVHSVLRVGDMIEIDRGTRYSIQNAIDKVSVLMCIRS
modifications: 35S-methionine label

From publication PMC7776573
